PubChem BioAssay AID504706 (National Center for Advancing Translational Sciences (NCATS), 2011)
About 200 (0.062%) of roughly 320,000 compounds were called active. This list was built around the results that the source calls inconclusive (neither active nor inactive); the mix of calls is not that of the screen. Calls come from the whole dose curve; as a rule, active = well fitted activation curve with a large enough effect; inconclusive = small, poorly fitted or top-dose-only effect; inactive = no such curve, though single readings can be large or run the other way. No potency is given beside an inconclusive call; the fits are too rough.

assay: qHTS assay for re-activators of p53 using a Luc reporter; conditions: H1299 p53-A138V BP100-luciferase reporter, luminescence, 24 h; series mostly up to 92.2 µM; note: nearly all actives have a fitted effect of over 45% in size
Procedure, shortened: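 p53-null H1299 cells stably carrying temperature-sensitive p53-A138V and a BP100-luciferase reporter were pinned with compounds (4-point, 1:5 series) and held 24 hrs at 37 deg C. Luminescence was read 10 min after detection reagent.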
Potency is the fitted concentration of half-maximal effect; tags give direction and shape of the fitted curve.

Compound | Potency
CC(=O)Nc1ccc(S(=O)(=O)NC(C)c2ccccc2)cc1 (centres undefined) | inactive
CCN1CCN(c2ncc(C(=O)Nc3cc(Cl)ccc3OC)c3ccccc23)CC1 | inconclusive [activator, partial curve, poor fit]
Cc1cc(C)nc(N/N=C/c2cc(Br)ccc2O)n1 | inactive
O=C(Nc1cccc2ccccc12)N1CCOCC1 | inactive
O=C(Nc1ccc2ccccc2n1)C1CCCCC1 | inconclusive [activator, partial curve, poor fit]
C=CCNC(=O)C1CC(=O)N(c2ccc(OCC(=O)Nc3ccccc3)cc2)C1 (centres undefined) | inconclusive [activator, partial curve, poor fit]
C=CCn1c(SCC(C)=O)nc2scc(-c3ccc(C)o3)c2c1=O | inconclusive [activator, partial curve, poor fit]
COc1cccc(-c2noc(C(C)n3nc(C)c([N+](=O)[O-])c3C)n2)c1 (centres undefined) | inconclusive [activator, partial curve, poor fit]
COc1ccccc1Cn1c(=S)[nH]c2cc(C(=O)NCCN(C)C)ccc2c1=O | inactive
COc1cc(/C=N/NC(=O)c2ccoc2C)cc(OC)c1O | inconclusive [activator, partial curve, poor fit]
C#Cc1cccc(NC(=O)c2ccc(Cl)cc2Cl)c1 | inconclusive [activator, partial curve, poor fit]
Nc1c(C(=O)Nc2ccccc2Cl)nnn1-c1ccc2c(c1)OCCO2 | inconclusive [activator, partial curve, poor fit]
Cc1ccc(NC(=S)NC2CC3CCC(C2)N3Cc2ccco2)c(C)c1 (centres undefined) | inconclusive [activator, single point]
COC(=O)N1N=C(c2ccc(Br)cc2)CC1(O)C(F)(F)F (centres undefined) | inconclusive [activator, partial curve, poor fit]
S=c1nc(-c2ccccc2)oc2c1CCCC2 | inconclusive [activator, single point]
CCOc1ccc(CNC(c2ccccc2)c2ccccc2)cc1 | inconclusive [activator, full curve, poor fit]
CN(Cc1ccco1)c1ncnc2ccc(-c3ccccc3Cl)cc12 | inactive
NC(=O)c1ccc(-c2ccccc2F)cc1 | inactive
Cc1[nH]n(-c2ccccc2)c(=O)c1/C=N/NC(=O)c1ccc(O)cc1O | inactive
CCC(C)/C=C/C1=CC2=C(Cl)C(=O)C3(C)OC(=O)C(C(=O)C(C)C(C)O)C3C2=CO1 (centres undefined) | inactive
Cc1cc(N2CC(C(=O)O)CC2=O)ccc1Br (centres undefined) | inactive
CC(C)(C)C(=O)CSc1nc2ncc(Br)cc2[nH]1 | inconclusive [activator, full curve, poor fit]
O=C(COc1ccc(Cl)cc1)Nc1ccccc1CO | inconclusive [activator, partial curve, poor fit]

Compound | Potency
COc1cccc(-c2nnc(SCC(=O)OC(C)C)n2Cc2ccco2)c1 | inactive
Cc1ccc(OCC(=O)Nc2cccc(O)c2)cc1C | inconclusive [activator, partial curve, poor fit]
CN(C)c1ccc(/C=C(\NC(=O)c2ccccc2)C(=O)NCCCN2CCOCC2)cc1 | inconclusive [activator, single point]
CCc1nc2oc3ccccc3c(=O)c2c(=O)n1-c1ccc(C)cc1 | inconclusive [activator, partial curve, poor fit]
CC1(c2ccc(OC(F)F)cc2)NC(=O)N(CC(=O)Nc2ccc(Cl)cc2F)C1=O (centres undefined) | inactive
COc1ccc(-n2c(C)c(C)c3c(NCCO)ncnc32)cc1 | inconclusive [activator, partial curve, poor fit]
COc1cc(/C=N/NC(=O)c2cccc(N3CCCC3=O)c2)ccc1O | inactive
NC(=O)c1ccsc1NC(=O)CCS(=O)(=O)c1ccccc1 | inconclusive [activator, partial curve, poor fit]
CC(=O)c1cnc2c(-c3ccccc3)cnn2c1C | inconclusive [activator, single point]
COc1ccc2sc(NC(C)=O)nc2c1 | inconclusive [activator, partial curve, poor fit]
COC1=CC(=Cc2c(N)n3nc(CC(=O)N4CCCCC4)sc3nc2=O)C=C(OC)C1=O | inactive
O=C(CCCc1nc(-c2ccccc2)no1)NCc1cccnc1 | inactive
O=C(COc1ccc(Cl)cc1)Nc1ccc(C(=O)O)cc1NC(=O)COc1ccc(Cl)cc1 | inconclusive [activator, partial curve, poor fit]
COc1ccccc1-c1ccc(Nc2cccc(C(C)=O)c2)nn1 | inconclusive [activator, single point]
CCCCc1cc(O)c(CCCC)c(O)c1 | inconclusive [activator, partial curve, poor fit]
COc1ccc(Cc2nnc(SCC(=O)c3c(N)n(C4CC4)c(=O)[nH]c3=O)o2)cc1 | inconclusive [activator, single point]
Nc1nc2ccc(C(=O)Nc3ccccc3)cc2s1 | inconclusive [activator, full curve, poor fit]
COc1cc(/C=C2\NC(=S)N(C)C2=O)ccc1OCc1ccccc1F | inactive
O=C(O)c1cccc(CN2C(=O)SC(Nc3ccccc3)C2=O)c1 (centres undefined) | inconclusive [activator, single point]
Cc1cccc(C(=O)O/N=C/c2c(Cl)n(C)c3ccccc23)c1 | inactive
O=C(N/N=C/C=C\c1ccccc1[N+](=O)[O-])c1ccccn1 | inconclusive [activator, partial curve, poor fit]
Cc1ccc(C)c(NNC(N)=S)c1 | inactive
N/C(=N\OC(=O)COc1ccccc1)c1ccccn1 | inconclusive [activator, full curve, poor fit]

Compound | Potency
COc1ccc(C(=O)COC(=O)c2cccnc2SC)cc1 | inactive
Cc1cc(Br)c(S(=O)(=O)NCCN2CCOCC2)cc1C | inconclusive [activator, partial curve, poor fit]
O=C(N/N=C\c1ccco1)Nc1cccc(Cl)c1 | inconclusive [activator, full curve, poor fit]
CCn1cnc2cc(NCc3ccc(C)cc3)ccc21 | inconclusive [activator, partial curve, poor fit]
Cc1cc(=O)oc2cc(NC(=O)C(C)N3C(=O)C4CCCCC4C3=O)ccc12 (centres undefined) | inactive
[N-]=[N+]=CC(=O)CC(c1ccccc1)N1C(=O)c2ccccc2C1=O (centres undefined) | inconclusive [activator, single point]
CCNC(=O)C1CC(=O)N(Cc2ccc3c(c2)OCO3)C(=Nc2ccc(F)cc2)S1 (centres undefined) | inactive
CCC1CCCCN1S(=O)(=O)c1ccc(C(=O)N(CCCN(C)C)c2nc3cc4c(cc3s2)OCO4)cc1 (centres undefined) | inconclusive [activator, partial curve, poor fit]
COc1cc(C(=S)N2CCOCC2)ccc1OC(=O)c1ccc(Br)cc1 | inconclusive [activator, single point]
COc1ccc(-c2ccn(-c3cccc(F)n3)n2)cc1 | inconclusive [activator, full curve]
Cc1ccc(-c2csc(NC(=O)CSc3nc4ccccc4[nH]3)n2)cc1 | inconclusive [activator, full curve, poor fit]
CC(=O)Nc1cccc(NC(=O)CSc2ccc(-c3ccccn3)nn2)c1 | inconclusive [activator, single point]
COc1cc(/C=C2/SC(=O)NC2=O)ccc1OC(=O)c1ccco1 | inconclusive [activator, single point]
O=C(COc1ccccc1)NC(=S)N1CCc2ccccc21 | inactive
CCCC(=O)Nc1nnc(-c2ccco2)s1 | inconclusive [activator, partial curve, poor fit]
COc1ccc(-c2cn3cccnc3n2)cc1NC(=O)C1CCCC1 | inconclusive [activator, partial curve, poor fit]
N#Cc1c(-c2ccccc2)cc(-c2ccco2)c(C#N)c1N | inconclusive [activator, single point]
NC(=O)CSc1nnc(NC(=O)C23CC4CC(CC(C4)C2)C3)s1 | inconclusive [activator, partial curve, poor fit]
CC(Sc1ccsc1[N+](=O)[O-])C(=O)NCCc1ccc(Cl)cc1 (centres undefined) | inconclusive [activator, partial curve]
OCCSc1nnc(Nc2ccccc2)s1 | inconclusive [activator, partial curve, poor fit]
CS(=O)(=O)c1ccc2nc(NC(=O)CCNC(=O)c3ccc([N+](=O)[O-])cc3)sc2c1 | inconclusive [activator, partial curve, poor fit]
COc1ccc(-c2noc(-c3cccc(Cl)c3)n2)cc1OC | inconclusive [activator, single point]
CCc1ccc(C2=NN(S(C)(=O)=O)C(c3cccs3)C2)cc1 (centres undefined) | inconclusive [activator, partial curve, poor fit]
